Values joined by “and” are separate entries in the source; they are usually repeats but may differ in a detail not shown here. Identical values can stand only once. The shares of active, inactive and inconclusive entries below differ from those in the screen. For some assays here: Potencies beside an inconclusive call are fits to weak or partial responses and may not hold up. Active and inactive are the calls of the source. Calls come from the whole dose curve; as a rule, active = well fitted curve in the direction sought with a large enough effect; inconclusive = small, poorly fitted or top-dose-only effect, or another doubt; inactive = no such curve, though single readings can be large; an effect the other way counts as inactive or inconclusive.
How the values were obtained:
[1] = Viability qHTS for spleen associated tyrosine kinase inhibitor (SYKi) naive MV4-11 cells (AID 1963823); conditions: MV4-11 AML viability, CellTiter-Glo luminescence, 72 h; viability (% of control): at 45 µM (top of the series); note: nearly all actives have a fitted effect of over 40% in size
How it was run: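 SYKi-naive MV4-11 AML cells, 500 per well, were exposed to library compounds for 72 hr at 37 C, 5% CO2. Viability was then read by CellTiter-Glo luminescence after 10 min at room temperature.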

[2] = Quantitative highthroughput screen to assess conditional lethalithy of NOMO1 cells grown in Human Plasma-Like Medium with dialyzed fetal bovine serum (HPLM+ds) (AID 1963878); conditions: NOMO1 AML cells in HPLM+ds, CellTiter-Glo viability, 48 h; viability: at 45.8 µM (top of the series); note: nearly all actives have a fitted effect of over 35% in size;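 for Viability: 100% = DMSO wells and 0% = empty wells on each plate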
How it was run: (§1)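 Each medium arm—HPLM with 10% dialyzed FBS, or RPMI1640 with 5 mM glucose and 10% untreated or dialyzed FBS—was screened against an 11-point, 3-fold compound titration for 48 h at 37 °C, with CellTiter-Glo luminescence as endpoint.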

[3] = Quantitative highthroughput screen to assess conditional lethalithy of P12 Ichikawa cells grown in Human Plasma-Like Medium with dialyzed fetal bovine serum (HPLM+ds) (AID 1963879); conditions: Potency: viability; note: nearly all actives have a fitted effect of over 35% in size
How it was run: as §1

[4] = Quantitative highthroughput screen to assess conditional lethalithy of P12 Ichikawa cells grown in RPMI1640 with untreated serum (RPMI+s) (AID 1963881); conditions: Potency: viability; note: nearly all actives have a fitted effect of over 35% in size;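 for Viability: 100% = DMSO wells and 0% = empty wells without cells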
How it was run: as §1

[5] = Quantitative highthroughput screen to assess conditional lethalithy of SEM cells grown in Human Plasma-Like Medium with dialyzed fetal bovine serum (HPLM+ds) (AID 1963882); note: nearly all actives have a fitted effect of over 35% in size
How it was run: as §1

[6] = Quantitative highthroughput screen to assess conditional lethalithy of SEM cells grown in RPMI1640 with dialyzed fetal bovine serum (RPMI+ds) (AID 1963884); conditions: SEM B-ALL cells, RPMI+dialyzed FBS, CellTiter-Glo viability, 48 h; viability: at 45.8 µM (top of the series); note: nearly all actives have a fitted effect of over 35% in size;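 for Viability: 100% = DMSO control wells and 0% = empty wells without cells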
How it was run: as §1

[7] = Cellular viability qHTS for adrenocortical cancer (ACC) cell line SW-13 (AID 1963989); conditions: SW-13 ACC cells viability, CellTiter-Glo, 48 h; activity (max response): stronger effect = lower value; note: nearly all actives have a fitted effect of over 65% in size;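 for activity (max response): cells grown in serum-free medium with ITS supplement; % is set by controls: 0 for no effect and ±100 for the full control effect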
How it was run: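 SW-13 cells in ITS-supplemented serum-free DMEM were plated overnight, then exposed for 48 h at 37C to compound titrations (up to 46 uM final). Viability was read by CellTiter-Glo luminescence; four-parameter logistic fits gave IC50 and efficacy.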

[8] = Cellular viability qHTS for adrenocortical cancer (ACC) cell line NCI-H295R (AID 1963990); conditions: CellTiter-Glo ATP luminescence, 48 h; activity change, negative = viability loss: at 46.1 µM (top of the series); note: nearly all actives have a fitted effect of over 60% in size;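 for activity change, negative = viability loss: 0% = DMSO only wells and -100% = full killing with cytotoxic reference compound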
How it was run: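 Luminescent ATP read-out (CellTiter-Glo, 20 min RT) after 48 h drug exposure of NCI-H295R cells; a titration up to 46 uM final. Data normalized to doxorubicin (100% inhibition) and DMSO (0%); 4-parameter fit gives IC50, max response.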

[9] = Quantitative highthroughput screen to assess conditional lethalithy of P12 Ichikawa cells grown in RPMI1640 with dialyzed fetal bovine serum (RPMI+ds) (AID 1963880); conditions: Potency: P12-Ichikawa viability; note: nearly all actives have a fitted effect of over 35% in size;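 for Viability: 100% = DMSO wells and 0% = empty wells on each plate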
How it was run: as §1

[10] = Quantitative highthroughput screen to assess conditional lethalithy of SEM cells grown in RPMI1640 with unreated serum (RPMI+s) (AID 1963883); conditions: SEM B-ALL cells, CellTiter-Glo viability, 48 h; viability: at 45.8 µM (top of the series); note: nearly all actives have a fitted effect of over 35% in size;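 for Viability: 100% = DMSO wells and 0% = empty wells without cells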
How it was run: as §1
Potency is the fitted concentration of half-maximal effect; tags give direction and shape of the fitted curve.

| Compound | Potency [1] | Potency [2] | Potency [3] | Potency [4] | Potency [5] | Potency [6] | Potency [7] | Potency [8] | Potency [9] | activity (max response) [7] | Potency [10] |
| --- | --- | --- | --- | --- | --- | --- | --- | --- | --- | --- | --- |
| Cc1cc(Nc2ncc3c(n2)N(C)C(=O)N(c2cc(NC(=O)c4cccc(C(F)(F)F)c4)ccc2C)C3)n(C)n1 | inconclusive: 0.0166 µM [cytotoxic, full curve] | active: 1.18 µM | active: 16.6 µM | active: 5.9 µM | active: 0.469 µM | active: 372 nM | active: 355 nM | active: 1.26 µM |  |  |  |
| O=C(O)c1nc(=O)[nH]c(=O)[nH]1 | inconclusive: 10.2 µM [rising, partial curve, poor fit] | inactive | inactive |  | inactive | inactive |  |  | inactive | inactive: -18% |  |
| Fc1ccc(CNc2ncnc3ccc(F)cc23)cc1 | active: 2.06 µM | inactive | inconclusive: 14.8 µM [cytotoxic, partial curve, poor fit] | inconclusive: 11.8 µM [cytotoxic, partial curve] |  | inactive | inconclusive: 3980 nM [cytotoxic, full curve] | inconclusive: 8.91 µM [cytotoxic, full curve] | active: 11.8 µM |  | inactive |
| O=C(Nc1cc2cc[nH]c2cn1)c1ccccc1 | inconclusive: 8.2 µM [cytotoxic, partial curve] | active: 3.32 µM |  | active: 14.8 µM | active: 3.72 µM |  |  |  |  |  | active: 2.96 µM |
| CCOC(=O)C(C)Oc1cccc2c(=O)n(CC(=O)Nc3ccc4c(c3)OCCO4)ccc12 (centres undefined) | active: 1.48 µM | inactive |  | inactive |  | inactive |  |  |  |  |  |
| O=C(O)CCCCCC(=O)NN=C1CCCC1 | inactive |  | inconclusive: 20.9 µM [cytotoxic, single point] |  |  |  |  |  |  |  | inactive |
| COc1ccc(-c2cc3nccn3c(Nc3ncccc3C(N)=O)n2)cc1OC | inconclusive: 0.082 µM [cytotoxic, full curve] | inconclusive: 0.235 µM [cytotoxic, partial curve, poor fit] |  | inactive | inconclusive: 0.743 µM [cytotoxic, full curve, poor fit] | inconclusive: 418 nM [cytotoxic, full curve] |  |  |  |  | inconclusive: 3.72 µM [cytotoxic, partial curve, poor fit] |
| O=C(c1ccccc1)c1ccc2n1CCC2C(=O)O (centres undefined) | inactive |  | active: 2.35 µM |  | inconclusive: 4.18 µM [cytotoxic, full curve, poor fit] |  |  | inconclusive: 20.6 µM [cytotoxic, partial curve, poor fit] | active: 4.18 µM | inactive: 8.29% and inactive: -6.52% | inconclusive: 7.43 µM [cytotoxic, partial curve, poor fit] |
| CC1(C)CNc2cc(NC(=O)c3cccnc3NCc3ccncc3)ccc21 | active: 2.31 µM and inconclusive: 3.72 µM [cytotoxic, full curve] |  | inactive |  | inconclusive: 26.4 µM [cytotoxic, single point] | inconclusive: 26400 nM [cytotoxic, single point] |  |  |  |  | inconclusive: 29.6 µM [cytotoxic, single point] |
| CCCCN(CCCC)CCC(O)c1cc2c(Cl)cc(Cl)cc2c2cc(C(F)(F)F)ccc12 (centres undefined) | active: 10.6 µM | inactive |  |  |  | inconclusive: 296 nM [cytotoxic, full curve, poor fit] |  |  |  |  | inconclusive: 0.332 µM [cytotoxic, full curve, poor fit] |
| COc1ccc2nc3cc(Cl)ccc3c(Nc3cc(CN4CCCC4)c(O)c(CN4CCCC4)c3)c2n1 | active: 0.742 µM |  | inactive | inconclusive: 29.6 µM [cytotoxic, partial curve, poor fit] | active: 16.6 µM | inconclusive: 14800 nM [cytotoxic, partial curve] |  | active: 5.62 µM |  |  | inconclusive: 14.8 µM [cytotoxic, partial curve] |
| Nc1nccc(-c2ccc3noc(-c4ccc(Cl)cc4)c3c2)n1 | inconclusive: 13.2 µM [cytotoxic, partial curve] |  | inactive |  |  | inactive |  | inactive | inactive |  |  |
| CO[C@H]1C=CO[C@@]2(C)Oc3c(C)c(O)c4c(O)c(c5c(c4c3C2=O)NC2(CCN(CC(C)C)CC2)N=5)=NC(=O)C(C)=CC=C[C@H](C)[C@H](O)[C@@H](C)[C@@H](O)[C@@H](C)[C@H](OC(C)=O)[C@H]1C | inconclusive: 20.6 µM [cytotoxic, partial curve] |  | inactive |  | inactive |  |  |  |  |  | inactive |
